{
  "source": "paper PMC4336329",
  "about": "(PLoS ONE, 2015)",
  "note": "Screen size: about 310,000 compounds; about 2,200 (0.71%) showed an effect of 50% or more. The effect is printed as a negative number. Some of the results follow.",
  "data": [
    {"biological_target": "human ether-à-go-go-related gene (hERG) potassium channel (human, UniProt Q12809)", "sequence (Q12809 whole entry, looked up)": "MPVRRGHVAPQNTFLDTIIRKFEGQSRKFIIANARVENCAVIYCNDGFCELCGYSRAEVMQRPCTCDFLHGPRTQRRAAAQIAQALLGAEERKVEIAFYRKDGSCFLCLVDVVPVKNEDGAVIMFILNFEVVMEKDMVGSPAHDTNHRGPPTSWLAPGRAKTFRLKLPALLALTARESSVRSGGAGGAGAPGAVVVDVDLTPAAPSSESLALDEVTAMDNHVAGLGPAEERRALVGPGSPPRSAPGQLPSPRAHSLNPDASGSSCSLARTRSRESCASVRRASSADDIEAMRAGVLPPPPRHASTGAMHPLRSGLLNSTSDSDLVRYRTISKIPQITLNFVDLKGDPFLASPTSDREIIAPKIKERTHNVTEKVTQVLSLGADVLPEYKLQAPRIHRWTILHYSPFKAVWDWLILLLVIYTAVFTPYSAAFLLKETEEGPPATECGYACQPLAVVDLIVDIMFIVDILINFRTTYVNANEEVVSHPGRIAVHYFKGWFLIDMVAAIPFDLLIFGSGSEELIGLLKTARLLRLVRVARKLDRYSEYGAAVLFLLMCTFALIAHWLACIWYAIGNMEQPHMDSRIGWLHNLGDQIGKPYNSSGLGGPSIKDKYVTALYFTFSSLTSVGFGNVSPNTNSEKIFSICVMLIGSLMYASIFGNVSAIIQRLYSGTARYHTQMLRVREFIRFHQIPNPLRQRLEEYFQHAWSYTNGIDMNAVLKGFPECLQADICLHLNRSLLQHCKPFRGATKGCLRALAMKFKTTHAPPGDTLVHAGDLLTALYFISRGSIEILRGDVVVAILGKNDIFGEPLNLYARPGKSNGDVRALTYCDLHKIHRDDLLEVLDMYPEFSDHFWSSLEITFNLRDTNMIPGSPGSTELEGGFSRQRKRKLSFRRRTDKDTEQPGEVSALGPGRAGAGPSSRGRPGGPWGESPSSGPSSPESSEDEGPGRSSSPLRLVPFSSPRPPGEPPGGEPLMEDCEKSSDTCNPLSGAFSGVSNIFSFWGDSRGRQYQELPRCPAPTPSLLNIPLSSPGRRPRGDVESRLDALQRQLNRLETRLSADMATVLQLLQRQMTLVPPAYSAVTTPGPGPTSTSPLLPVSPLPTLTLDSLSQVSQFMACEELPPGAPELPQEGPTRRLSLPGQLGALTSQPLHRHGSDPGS", "assay": "primary screen, population patch clamp on CHO cells stably expressing hERG", "units": {"hERG current change (%, negative = inhibition) at 1uM": "%"}, "values": [
      {"smiles": "Cc1cccc2sc(NNC(=O)c3ccc(S(=O)(=O)N4CCCC(C)C4)cc3)nc12", "note": "(stereo not drawn)", "hERG current change (%, negative = inhibition) at 1uM": 16.2},
      {"smiles": "O=C(CN1C(=O)NC2(CCCC2)C1=O)OCc1ccccc1F", "hERG current change (%, negative = inhibition) at 1uM": 11.1},
      {"smiles": "CN(C(=O)COC(=O)c1c2c(nc3ccccc13)CCCC2)c1c(N)n(Cc2ccccc2)c(=O)[nH]c1=O", "hERG current change (%, negative = inhibition) at 1uM": 7.37},
      {"smiles": "COc1ccccc1/C=C(\\NC(=O)c1ccc(OC)c(OC)c1)C(=O)Nc1ccc([N+](=O)[O-])cc1", "hERG current change (%, negative = inhibition) at 1uM": 16.7},
      {"smiles": "CCN(CC)c1ccc(/C=C2\\C(=O)c3ccc(C(=O)O)cc3C2=O)cc1", "hERG current change (%, negative = inhibition) at 1uM": 15},
      {"smiles": "Cc1ccc(OCC(=O)N(Cc2cccs2)C2CCS(=O)(=O)C2)cc1", "note": "(stereo not drawn)", "hERG current change (%, negative = inhibition) at 1uM": 13.3},
      {"smiles": "COc1cccc(N2C(=NC(=O)C3CCCCC3)SC3CS(=O)(=O)CC32)c1", "note": "(stereo not drawn)", "hERG current change (%, negative = inhibition) at 1uM": 15.3},
      {"smiles": "Cc1c(N/C(=N/S(=O)(=O)c2ccc(Cl)cc2)c2ccccc2)c(=O)n(-c2ccccc2)n1C", "hERG current change (%, negative = inhibition) at 1uM": 3.8},
      {"smiles": "COc1cccc(-n2c(SCC(=O)c3c[nH]c4ccccc34)nc3ccccc3c2=O)c1", "hERG current change (%, negative = inhibition) at 1uM": 17},
      {"smiles": "Cc1ccc(NC(=O)c2c(C)noc2C)cc1", "hERG current change (%, negative = inhibition) at 1uM": 5.05},
      {"smiles": "C/C(=N\\Nc1ccc([N+](=O)[O-])cc1)c1ccc(N)cc1", "hERG current change (%, negative = inhibition) at 1uM": 3.67},
      {"smiles": "CCc1ccc(N2C(=O)CN(Cc3sccc3C)C2=S)cc1", "hERG current change (%, negative = inhibition) at 1uM": -6.96},
      {"smiles": "O=C(COC(=O)C1(c2ccccc2F)CCCC1)N1CCc2ccccc21", "hERG current change (%, negative = inhibition) at 1uM": 7.91},
      {"smiles": "c1ccc(-c2csc3ncn4cnnc4c23)cc1", "hERG current change (%, negative = inhibition) at 1uM": 1.17},
      {"smiles": "CSc1ccc(/C=C/C(=O)N2CCCN(C)CC2)cc1.Cl", "hERG current change (%, negative = inhibition) at 1uM": 5.96},
      {"smiles": "Cc1cccc(C)c1OCC(=O)OCC(=O)Nc1ccc(Cl)cn1", "hERG current change (%, negative = inhibition) at 1uM": 14.8},
      {"smiles": "COc1ccc(NC(=O)CSc2[nH]c(=O)cc(C)c2C#N)cc1OC", "hERG current change (%, negative = inhibition) at 1uM": 4.64},
      {"smiles": "CN1CC(=O)N(CC(=O)N2N=C(c3ccc(Cl)cc3)CC2c2ccco2)C1=O", "note": "(stereo not drawn)", "hERG current change (%, negative = inhibition) at 1uM": 6.28},
      {"smiles": "O=C(CCN1C(=O)C2C3C=CC(C3)C2C1=O)N1CCCCC1", "note": "(stereo not drawn)", "hERG current change (%, negative = inhibition) at 1uM": -7.6},
      {"smiles": "CCN(CC(=O)Nc1ccc(NC(C)=O)cc1)C(=O)c1cc(CN2C(=O)c3ccccc3C2=O)ccc1OC", "hERG current change (%, negative = inhibition) at 1uM": 9.34},
      {"smiles": "COc1cc(C(=O)Nc2cc3c4c(c2)CC(=O)N4CCC3)cc(OC)c1OC", "hERG current change (%, negative = inhibition) at 1uM": 3.01},
      {"smiles": "COc1ccc(C2NC(=O)c3ccccc3O2)cc1", "note": "(stereo not drawn)", "hERG current change (%, negative = inhibition) at 1uM": -1.51},
      {"smiles": "CC(=O)c1cccc(NC(=O)N2CCCC2C(=O)Nc2ccc3c(c2)OCO3)c1", "note": "(stereo not drawn)", "hERG current change (%, negative = inhibition) at 1uM": 10.6},
      {"smiles": "Cc1nc2ccc(NC(=O)CCS(=O)(=O)c3ccc(Cl)cc3)cc2s1", "hERG current change (%, negative = inhibition) at 1uM": 0.701},
      {"smiles": "COc1ccc(CC(=O)Nc2cccc(-c3ccc4nnc(C)n4n3)c2)cc1OC", "hERG current change (%, negative = inhibition) at 1uM": 9.37},
      {"smiles": "CN1C(=O)N(C)C2C1N(C)S(=O)(=O)N2C", "note": "(stereo not drawn)", "hERG current change (%, negative = inhibition) at 1uM": 16.7},
      {"smiles": "COc1ccccc1C(=O)N/N=C1/NC(=O)CC(C(=O)Nc2ccccc2)S1", "note": "(stereo not drawn)", "hERG current change (%, negative = inhibition) at 1uM": 12.9},
      {"smiles": "O=C(c1cccc(Br)c1)c1conc1C(=O)c1ccco1", "hERG current change (%, negative = inhibition) at 1uM": 6.8},
      {"smiles": "Cc1cc(C)n2nc(NCc3cccc(Br)c3)nc2n1", "hERG current change (%, negative = inhibition) at 1uM": -32.1},
      {"smiles": "O=C(c1ccccc1)c1cn[nH]c1-c1ccccc1O", "hERG current change (%, negative = inhibition) at 1uM": 4.86},
      {"smiles": "COc1ccc(S(=O)(=O)N2CCN(Cc3cccc([N+](=O)[O-])c3)CC2)cc1", "hERG current change (%, negative = inhibition) at 1uM": 2.62},
      {"smiles": "COCCCNC(=O)CCn1c(=O)c2ccccc2n(CC(=O)Nc2cc(Cl)ccc2C)c1=O", "hERG current change (%, negative = inhibition) at 1uM": 2.79},
      {"smiles": "NC(=O)/C(=C\\c1ccccc1)NC(=O)c1ccc(NC(=O)c2ccccc2)cc1", "hERG current change (%, negative = inhibition) at 1uM": 12.6},
      {"smiles": "CNC(=S)Nc1ccc([N+](=O)[O-])cc1C", "hERG current change (%, negative = inhibition) at 1uM": 16.4},
      {"smiles": "CCN(CC(=O)Nc1c(F)cccc1F)C(=O)c1ccccn1", "hERG current change (%, negative = inhibition) at 1uM": 9.03},
      {"smiles": "Cc1cccc(Oc2ccc(N)cc2)c1", "hERG current change (%, negative = inhibition) at 1uM": 8.48},
      {"smiles": "Cc1ccc(C)c(CN2C(=O)COc3ccc(C(=O)c4ccccc4C(=O)O)cc32)c1", "hERG current change (%, negative = inhibition) at 1uM": 13.8},
      {"smiles": "O=C(Nc1ccccc1-c1nnn(CC(=O)N2CCc3ccccc3C2)n1)C1CCC1", "hERG current change (%, negative = inhibition) at 1uM": -14},
      {"smiles": "COc1ccc(N2CCN(C3CCCCC3NS(=O)(=O)c3ccc(Cl)cc3)CC2)cc1", "note": "(stereo not drawn)", "hERG current change (%, negative = inhibition) at 1uM": 4.01},
      {"smiles": "C/C(=N\\NC(=O)CCC(=O)N/N=C(\\C)c1ccc(C)o1)c1ccc(C)o1", "hERG current change (%, negative = inhibition) at 1uM": 10.5},
      {"smiles": "O=C(CN1C(=O)c2cccc3cccc1c23)NC1CCCCC1", "hERG current change (%, negative = inhibition) at 1uM": 9.52},
      {"smiles": "COC(=O)c1cccc(COC(=O)c2cc3ccccc3oc2=O)c1", "hERG current change (%, negative = inhibition) at 1uM": 14.1},
      {"smiles": "O=C(Cn1nc(-c2ccccc2Cl)ccc1=O)Nc1ccc(Br)cc1", "hERG current change (%, negative = inhibition) at 1uM": 5.05},
      {"smiles": "CCOC(=O)c1ccc(S(=O)(=O)Nc2cc(C(C)(C)C)no2)cc1", "hERG current change (%, negative = inhibition) at 1uM": 12.5},
      {"smiles": "Cc1ccc(C)c(N2CCN(S(=O)(=O)c3ccc(-c4ccc(=O)[nH]n4)o3)CC2)c1", "hERG current change (%, negative = inhibition) at 1uM": 11.4},
      {"smiles": "O=C(Nc1ccc([N+](=O)[O-])cc1)OCCc1ccccn1", "hERG current change (%, negative = inhibition) at 1uM": 7.13},
      {"smiles": "O=C(NC1(C(F)(F)F)NC(=O)N(c2ccc(F)c(Cl)c2)C1=O)c1ccncc1", "note": "(stereo not drawn)", "hERG current change (%, negative = inhibition) at 1uM": 0.442},
      {"smiles": "COc1ccccc1CNC(=O)[C@@H]1CCCN1S(=O)(=O)c1ccccc1F", "hERG current change (%, negative = inhibition) at 1uM": 22.4},
      {"smiles": "O=C(Cn1cc(C(F)(F)F)ccc1=O)N/N=C/c1cccc(Cl)c1", "hERG current change (%, negative = inhibition) at 1uM": -0.543},
      {"smiles": "O=C(CSc1ccc2nnc(-c3ccccn3)n2n1)Nc1ccccc1F", "hERG current change (%, negative = inhibition) at 1uM": 4.85},
      {"smiles": "O=C(CSc1nnc(-c2cnccn2)n1Cc1ccco1)c1ccc2ccccc2c1", "hERG current change (%, negative = inhibition) at 1uM": -5.09},
      {"smiles": "COc1ccc(S(=O)(=O)N2CCN(Cc3cccc(OC)c3)CC2)cc1", "hERG current change (%, negative = inhibition) at 1uM": 5.04},
      {"smiles": "CCOC(=O)c1ccccc1NC(=O)COC(=O)CCC(=O)N1CCOCC1", "hERG current change (%, negative = inhibition) at 1uM": 6.94},
      {"smiles": "CCCN(CC1CCCO1)C(=O)c1cc(COc2ccc(F)cc2F)on1", "note": "(stereo not drawn)", "hERG current change (%, negative = inhibition) at 1uM": 4.46}
    ]}
  ]
}
